Laboratory results from PMC12136788.
Some of the results follow.

T1: UNK ZnF1-3 (human, UniProt Q9C0B0 31-174)
T1 sequence: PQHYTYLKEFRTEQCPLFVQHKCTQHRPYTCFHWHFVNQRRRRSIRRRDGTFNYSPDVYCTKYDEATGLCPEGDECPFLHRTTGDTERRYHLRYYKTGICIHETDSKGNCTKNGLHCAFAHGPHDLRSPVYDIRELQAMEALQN

B1: chr2:198351390:198351391:-_ENSG00000144381_ENST00000345042|hu_hu|hu_hu_hu_mus_False|78_108 (ssRNA)
RNA: GGGAGUUCUACAGUCCGACGAUCUCAUUCUCACUCUCCACAGAAAGGCUGCUUCUGUUCUCAUCUGUGGUGACACAGCGCUACAGUCCUGAUGCUCACAGAACAGUAGAGAUGCCUCAGUGAUUUAAGUUGAAAGCAGGACACCAACAGAGGAUUGAGCAUCA
B2: chr6:72301320:72301321:+_ENSMUSG00000058706_ENSMUST00000077783|mus_mus|FALSE|FALSE (ssRNA)
RNA: GGGAGUUCUACAGUCCGACGAUCUCUUUGAGGACCACAUAAACACAUAAAAGGCCUCUGCAGAACACUUUGUUCAUCUAGCUAUUCCUUCAUCAAGAAGUGGGAAUAACGGCAAAUUUGUAGGUGUCGGGUCCUCAGAUUCUUCAACAGAGGAUUGAGCAUCA
B3: chr7:135119151:135119152:+_ENSMUSG00000030795_ENSMUST00000128851|mus_mus|motif|central (ssRNA)
RNA: GGGAGUUCUACAGUCCGACGAUCACUUUGAAUCCCCAUUGAUAAUGCCACACACUUCAAGAAAAUGCUGUUUUCCCCCAGCGGGGGCUGGGAAAUGUCCUCAGCACAGAUGGGGGUAGGGGAAUUAGUAAUUCUUUUAAAUUACAACAGAGGAUUGAGCAUCA
B4: chr14:76904430:76904431:+_ENSMUSG00000022010_ENSMUST00000022587|mus_mus|mus_mus_mus_hu_True|78_98 (ssRNA)
RNA: GGGAGUUCUACAGUCCGACGAUCUGCAGCCAAAAACAGAGAGAGGGAAAAAAAGAGCAAGCUCCAGCAGCCUUGUAUAAGCUAGAUAAAAUCUUCUGGCUUUCCGCAGCCCAGGGAGAAACAGAAAACGGCAGCCCUAAUUUACAACAGAGGAUUGAGCAUCA
B5: chr11:77340882:77340883:-_ENSG00000074201_ENST00000525064|hu_mus|FALSE|FALSE (ssRNA)
RNA: GGGAGUUCUACAGUCCGACGAUCAACAUACAAAUGCUCUUGAGGGUAAGCGUUUGGAUCCCUGGACACCGCAUGUAAACUAAUGGUGGGGUAUUCCAGUGAGAAUCCUAAUCCCGAACCAUCUAACCAGGACAGGCGGCUCUCCAACAGAGGAUUGAGCAUCA
B6: chr12:27888400:27888401:+_ENSG00000061794_ENST00000081029|hu_mus|motif|central (ssRNA)
RNA: GGGAGUUCUACAGUCCGACGAUCGGCCUUGCAGUACCGCUCUCCUACAAGCUUAAUGAGUUUUUUCUUGGCAUGAUUGUCGGAAUUCAAACUGGAAAGUUUAACCCUUAACGUUACGGCUCGGGCUUUGGGGUUUCGAAUAGACAACAGAGGAUUGAGCAUCA
B7: chr1:130270616:130270617:-_ENSMUSG00000026356_ENSMUST00000027602|mus_hu|motif|central (ssRNA)
RNA: GGGAGUUCUACAGUCCGACGAUCGUAAUGGUAAUUAAAAGCCAUUUCAAUGUCCAAACCAACAAACUCAGUUAGAUGUCGGUGGGUAUUAGAGUCUUCCGCUCUGAAUACUGGUCCAAUAGAGAAAACCUUCUCAAAAUCAGCCAACAGAGGAUUGAGCAUCA
B8: chr2:232320318:232320319:-_ENSG00000115053_ENST00000322723|hu_hu|hu_hu_hu_mus_True|38_68 (ssRNA)
RNA: GGGAGUUCUACAGUCCGACGAUCACUAUUAAAGUCUACAAAACCAAACCCUUUGGAAGAACCAGUUUCCCGGUCAGUGACUAUUCUUGCACGAACAGAGCCGUCAAAUGAUUCUUUUAAGGUCUCUUCAGUGGUAUCCUCAGACAACAGAGGAUUGAGCAUCA
B9: chr2:202488911:202488912:-_ENSG00000155755_ENST00000286196|hu_mus|hu_hu_hu_mus_False|18_38 (ssRNA)
RNA: GGGAGUUCUACAGUCCGACGAUCAUUGAAACAUUUUUCAUAAUCUCCAGUAGCAUUUCAGCAUUAUGUAACAAAAGCUCAAUUGUAAAUACAUGUAUAUACAUCUUAUACACUUAAAUUUAAAAACGGGGAGCGCAGGCGCCACAACAGAGGAUUGAGCAUCA
B10: chr8:42711381:42711382:-_ENSG00000120925_ENST00000527424|hu_mus|FALSE|FALSE (ssRNA)
RNA: GGGAGUUCUACAGUCCGACGAUCCACUUCUCGAUACAUAAUGGAGAUGUAAAUAAGCAACAAAAAGAUAACAAAGAAAUCAUCUAGAAAGCCCAGAAUUCCAAACAAGGCUUCAGGUACAAAAUCUAGAGGUGAUAUUAAAUACAACAGAGGAUUGAGCAUCA
B11: chr4:45823916:45823917:-_ENSMUSG00000035551_ENSMUST00000044297|mus_mus|FALSE|FALSE (ssRNA)
RNA: GGGAGUUCUACAGUCCGACGAUCGAUAGGGGUACAGGGACCCCCUCCCUUCAUAACACGCACCAAAUCAGAGCACCCACUAAGCAGUUACAGACACCAAGUCACGAGUCAGCUGGCCUGUGCCUUGUUUUGAGCCCUUUAGAACAACAGAGGAUUGAGCAUCA
B12: chr8:61654917:61654918:+_ENSG00000171316_ENST00000423902|hu_mus|FALSE|FALSE (ssRNA)
RNA: GGGAGUUCUACAGUCCGACGAUCAUUCAUUGGAGUACUGUUUGUAAGGCCUAAAUUUUGAUUCAUCCCUGUACUGUUAACUAAUCCCUGAUUUAGGUUACUGUAAGGAUAUCGAGAAUACUGCCCUGAGUUGUUUACAGUAGGCAACAGAGGAUUGAGCAUCA
B13: chr2:179763710:179763711:+_ENSMUSG00000039108_ENSMUST00000058764|mus_mus|FALSE|FALSE (ssRNA)
RNA: GGGAGUUCUACAGUCCGACGAUCCUGAGGUGGCUCUGAGGACAUGUCAAGCUCUGAAACAGGCUGUGGAGAUGGAGAAGAACUAGGGCUGGAAGCAGCGGCUGAGGCUGGAGGGCUUACCAACUUCUCUAGACCUAAGGAAGCCAACAGAGGAUUGAGCAUCA
B14: chr10:1038518:1038519:+_ENSG00000107937_ENST00000545048|hu_hu|hu_hu_hu_mus_False|68_108 (ssRNA)
RNA: GGGAGUUCUACAGUCCGACGAUCCAGUCUAUCAUGGUAAUUCUGUUGAGUAAAUUUGACUUUUCUCAUGUAAAAAUGUCGAAUCCGAUGAAUUUGAUAAUGUUUAUGAAUAACCGUUGGAGUCUUUCGUUGAGUCUUGGAUAACAACAGAGGAUUGAGCAUCA
B15: chr11:87793471:87793472:-_ENSMUSG00000020483_ENSMUST00000020775|mus_mus|mus_mus_mus_hu_False|38_48 (ssRNA)
RNA: GGGAGUUCUACAGUCCGACGAUCUGGACUUGAAAAUAAAAGAAUAAGCUGGAUCCCCCACCCCCCCACAUUGUCAACCCUACACGAGUUCUGAAUGUGAUUCAUAAGAAAAUCAGCAGCUCAAACGGCAAUGACCACCCCACCCAACAGAGGAUUGAGCAUCA
B16: 119790299_119790419_8973_CDS_ENSMUSG00000033943_ENSMUST00000110774|mouse|control|control (ssRNA)
RNA: GGGAGUUCUACAGUCCGACGAUCAGUCUUCAUGUGUAAGAUGGGAGGUGAAGAUACACUUUCAGGCUCUGCGGGGAGACCAGAAGUACUCUGCCCUCCAUCACUAGAUUUCCUAUGGGAAACAAGAGAAUCCUUUAUUUCAGGCAACAGAGGAUUGAGCAUCA
B17: chr2:202488911:202488912:-_ENSG00000155755_ENST00000286196|hu_mus|hu_hu_hu_mus_False|28_78 (ssRNA)
RNA: GGGAGUUCUACAGUCCGACGAUCAUUGAAACAUUUUUCAUAAUCUCCAGUAGCAUUCAGUAUUAUAGUAACAAAAGCUCAAUUGUAAAUACAUGUAUCUUAUAAAAAUAAAAAUACAAACACGAGUGGGGAGCGCAGGCGCCACAACAGAGGAUUGAGCAUCA
B18: chr3:119236079:119236080:+_ENSG00000113845_ENST00000264244|hu_hu|FALSE|FALSE (ssRNA)
RNA: GGGAGUUCUACAGUCCGACGAUCGUGCCUUUCGAUCCUUCUGUUUUCUUUCCUGAACAGUCUCACCAGAGUACUUCUGAAAUGCCAUCAGCAGGCCUCCUACAGGAGUGCUCCUGCAAUUACAAAAUGGCUUAAGGCAUCUUUCAACAGAGGAUUGAGCAUCA
B19: 110380732_110380852_2591_3pUTR_ENSMUSG00000035798_ENSMUST00000041723|mouse|control|control (ssRNA)
RNA: GGGAGUUCUACAGUCCGACGAUCCUUUAAAUUUCAACAAAAUAGUAUGACUUAGUAUACUCAUGCAAGUGCUUUAUUUUCAGACCGUGAGACCCCAGAGCAAGGUUACUAGAAAUUAUCUCACUGAACUAGAAAUAAGCCAGCCAACAGAGGAUUGAGCAUCA
B20: chr8:98731313:98731314:+_ENSG00000147649_ENST00000336273|hu_mus|FALSE|FALSE (ssRNA)
RNA: GGGAGUUCUACAGUCCGACGAUCACAAGCUUUCUCCUGUUUUGGUCGGGCUUUUGAGGUAUUCACUGGAAGCUCUUCUCUAGUGUCCUUUUCUAGGUCUUCUGUGUCCUGUGUGUGAGAGUUAUCUUCCCCUUGCUUCUUCUUCAACAGAGGAUUGAGCAUCA
B21: chr11:13408652:13408653:+_ENSG00000133794_ENST00000403290|hu_mus|FALSE|FALSE (ssRNA)
RNA: GGGAGUUCUACAGUCCGACGAUCACUUCUUUGUAGUGUAAAAACACCAUACAUCUGAAAUGACCAUUUUGCAUAUAAAAGCUACCAAUGAUGCUUCUGUGCACAAUGAUUAAAAAAUUCAACACAAACAAAAUCCAAAAUAUACAACAGAGGAUUGAGCAUCA
B22: chr7:88174460:88174461:+_ENSMUSG00000005621_ENSMUST00000107353|mus_hu|FALSE|FALSE (ssRNA)
RNA: GGGAGUUCUACAGUCCGACGAUCGCACCUGUAGCCCACCUUGCGGGCAUAGUGCAGGCAAUUCUCCUUUACAUGGGUCUGGAAGUAGGCAGAGCGGCAGAGGACCCCACACUCCGGGCAGCAGUAGGGGGACUUGUGUGCAUGCAACAGAGGAUUGAGCAUCA

molecular target: T1, UNK ZnF1-3; test: nsRBNS (natural sequence RNA bind-n-seq); RBNS binding buffer (assumed for nsRBNS): 25 mM Tris pH 7.5, 150 mM KCl, 3 mM MgCl2, 0.01% Triton X-100, 500 ug/ml BSA, 20 U/ml SUPERase-In, 4 C; UNK is unkempt and MSI1 is Musashi-1; names of the RNAs are library labels; protein concentration not given here; high values mean tight binding

Q: How did the binding signal turn out when B1 was run?
A: 1.15 enrichment R

Q: How did the binding signal turn out when B2 was run?
A: 0.782 enrichment R

Q: Which binding signal does the source give for B3 here?
A: 1.26 enrichment R

Q: With B4 as the binder, how does the binding signal read?
A: 2.9 enrichment R

Q: How did the binding signal turn out when B5 was run?
A: 1.14 enrichment R

Q: B6 was tested. Which binding signal did it give?
A: 0.786 enrichment R

Q: For B7, which binding signal is on record?
A: 0.759 enrichment R

Q: Which binding signal does the source give for B8 here?
A: 0.764 enrichment R

Q: With B9 as the binder, how does the binding signal read?
A: 2.41 enrichment R

Q: How did the binding signal turn out when B10 was run?
A: 2.6 enrichment R

Q: B11 was tested. Which binding signal did it give?
A: 1.04 enrichment R

Q: B12 was tested. Which binding signal did it give?
A: 0.764 enrichment R

Q: B13 was tested. Which binding signal did it give?
A: 1.78 enrichment R

Q: How did the binding signal turn out when B14 was run?
A: 0.509 enrichment R

Q: How did the binding signal turn out when B15 was run?
A: 2.2 enrichment R

Q: With B16 as the binder, how does the binding signal read?
A: 0.699 enrichment R

Q: How did the binding signal turn out when B17 was run?
A: 1.38 enrichment R

Q: Which binding signal does the source give for B18 here?
A: 0.655 enrichment R

Q: B19 was tested. Which binding signal did it give?
A: 1.42 enrichment R

Q: With B20 as the binder, how does the binding signal read?
A: 0.276 enrichment R

Q: How did the binding signal turn out when B21 was run?
A: 0.742 enrichment R

Q: For B22, which binding signal is on record?
A: 1.55 enrichment R
